In all, about 33,000 sequences were measured (“E-score (-0.5 to 0.5)”: median about -0.036, highest 2% from about 0.37 on). The list shows a part of the results.

We go through 86 sequences from the supplement of paper PMC3334620.

The assay has as its target T1, Yer064c (UniProt P40041).
T1 sequence: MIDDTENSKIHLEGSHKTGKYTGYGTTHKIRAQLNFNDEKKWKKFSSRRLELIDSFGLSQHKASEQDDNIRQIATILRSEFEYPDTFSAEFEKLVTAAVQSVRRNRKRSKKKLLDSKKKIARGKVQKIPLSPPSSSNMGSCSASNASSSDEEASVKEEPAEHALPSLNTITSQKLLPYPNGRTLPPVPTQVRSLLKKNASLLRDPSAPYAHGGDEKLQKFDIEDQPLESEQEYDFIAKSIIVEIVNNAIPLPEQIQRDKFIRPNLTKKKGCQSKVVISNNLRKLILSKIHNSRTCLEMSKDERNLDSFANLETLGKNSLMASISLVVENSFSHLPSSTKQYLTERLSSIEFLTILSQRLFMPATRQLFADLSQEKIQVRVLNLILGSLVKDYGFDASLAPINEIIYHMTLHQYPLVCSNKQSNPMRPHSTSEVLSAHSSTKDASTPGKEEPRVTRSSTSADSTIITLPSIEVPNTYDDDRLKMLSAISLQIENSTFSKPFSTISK
Briefly: PBM E-score (8-mer binding enrichment) (E-score (-0.5 to 0.5)); higher = stronger / more preferred TF binding; most listed sequences are background and not binding sites. The settings on record: protein concentration: 200 nM; construct: GST-full length. The procedure: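 Universal 'all 10-mer' protein binding microarrays (Agilent AMADID 015681) probed with GST-tagged S. cerevisiae TFs (full-length or DBD) made by in vitro transcription/translation (PURExpress), about 100-200 nM. Bound TF was detected with fluorescent anti-GST. Each ungapped 8-mer (which stands for itself and its reverse complement) is scored by the PBM enrichment score (E-score), a modified Wilcoxon-Mann-Whitney statistic from -0.5 to +0.5, computed with the Universal PBM Analysis Suite. Scale: above 0.35 generally sequence-specific binding.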
As for ATCGGTGA, the “PBM E-score” value was 0.175.

On to CACATTCG, for which the “PBM E-score” value was 0.0697.

Turning to AGTCCACG, the “PBM E-score” value amounted to 0.0376.

Consider ATTACCGA, for which the “PBM E-score” value was determined as 0.162.

In the case of CTCCCTAA, the “PBM E-score” value was -0.13.

Consider AGCGAAGG, for which the “PBM E-score” value was -0.178.

Take CCGTTATC: the “PBM E-score” value came to 0.0125.

For the sequence AATGCTCA, the “PBM E-score” value stood at 0.0674.

Take TACCAGAA: the “PBM E-score” value was 0.0829.

For AGAAATGA, the “PBM E-score” value was found to be 0.185.

Take ATGACCCC: the “PBM E-score” value was found to be 0.0957.

In the case of ACCGACTC, the “PBM E-score” value was 0.328.

On to CGTTCGAC, for which the “PBM E-score” value was -0.0317.

For AAGTAGAG, the “PBM E-score” value is 0.00221.

GGGCTGAC: the “PBM E-score” value was 0.249.

Take CTATTACC: the “PBM E-score” value is -0.0237.

Take ACGGGTAC: the “PBM E-score” value is -0.0908.

Consider CCAGTGGC, for which the “PBM E-score” value is -0.0264.

For TAAAATGA, the “PBM E-score” value stood at 0.267.

On to AAGGTCGG, for which the “PBM E-score” value is -0.253.

Consider ACACATCT, for which the “PBM E-score” value turned out to be 0.131.

Turning to CCCACTAA, the “PBM E-score” value worked out at 0.0943.

Consider AGCTTCTA, for which the “PBM E-score” value was -0.146.

For AATAAGTG, the “PBM E-score” value was found to be 0.0448.

With CCCAGCTC, the “PBM E-score” value was -0.201.

Turning to GAATCCTC, the “PBM E-score” value is -0.0146.

On to CAGAGTCC, for which the “PBM E-score” value was found to be 0.212.

As to CGTGGCAC, the “PBM E-score” value is -0.137.

CTTTAGGC: the “PBM E-score” value is -0.131.

As for ACGTACAA, the “PBM E-score” value was 0.0838.

As to CCCTAGCC, the “PBM E-score” value was -0.384.

Take GCCCGGCA: the “PBM E-score” value was -0.123.

As for ATGGGAGG, the “PBM E-score” value is -0.221.

Consider CTCAACGA, for which the “PBM E-score” value is 0.155.

ATGACGCA: the “PBM E-score” value is 0.0538.

Turning to CGGGTGTA, the “PBM E-score” value was -0.213.

For the sequence TACAGCGA, the “PBM E-score” value is -0.115.

As to CTTGTACC, the “PBM E-score” value is -0.169.

Take GCTTTCCC: the “PBM E-score” value is -0.143.

Take AAGGTTAC: the “PBM E-score” value stood at 0.0184.

For the sequence ATTCAATG, the “PBM E-score” value was 0.204.

AAATGGCT: the “PBM E-score” value is 0.1.

Regarding ATCGTCTC, the “PBM E-score” value was determined as 0.0303.

As to ACTACTAC, the “PBM E-score” value came to 0.261.

Regarding TGCATGCA, the “PBM E-score” value was -0.0534.

On to AGCTCGTA, for which the “PBM E-score” value is -0.0144.

With AGCTCACT, the “PBM E-score” value is -0.0974.

With CCAGCCAA, the “PBM E-score” value was -0.202.

As to CGTTGCTA, the “PBM E-score” value was found to be 0.0218.

On to AGTTCGTG, for which the “PBM E-score” value was -0.0415.

Consider AGCTATCG, for which the “PBM E-score” value is -0.083.

As to CGTGTTGA, the “PBM E-score” value turned out to be 0.202.

As for CTTAACGA, the “PBM E-score” value is 0.247.

For the sequence CGCGGCAA, the “PBM E-score” value is -0.203.

As for CCTCGTAG, the “PBM E-score” value stood at 0.0591.

As for GTACTTGA, the “PBM E-score” value turned out to be 0.0331.

For the sequence ATTTCATA, the “PBM E-score” value is -0.0227.

In the case of ACTACATG, the “PBM E-score” value came out at 0.256.

For the sequence GTCAGGCA, the “PBM E-score” value was determined as 0.0981.

Consider ATCTACGG, for which the “PBM E-score” value was -0.0418.

Regarding CGGATACG, the “PBM E-score” value is -0.0837.

Regarding ACAAAGAG, the “PBM E-score” value was -0.102.

CAGTCGGC: the “PBM E-score” value was 0.122.

In the case of CAGTGATG, the “PBM E-score” value was -0.077.

In the case of AAAAAATC, the “PBM E-score” value is 0.0353.

With ACTTGGAC, the “PBM E-score” value is -0.0338.

In the case of CCGCTGAG, the “PBM E-score” value came out at 0.00948.

With GGGGGGAC, the “PBM E-score” value was -0.213.

As for ACCTGCCG, the “PBM E-score” value was -0.193.

ACCTTCTC: the “PBM E-score” value was -0.0398.

With ATTGCGCC, the “PBM E-score” value was -0.0109.

Take AGCGGCTA: the “PBM E-score” value is -0.0162.

As for TCAATGAA, the “PBM E-score” value was found to be 0.196.

Regarding AGACATAG, the “PBM E-score” value worked out at 0.166.

With CTATGTGA, the “PBM E-score” value amounted to 0.126.

CGAACATA: the “PBM E-score” value was -0.0147.

Consider AGAACACA, for which the “PBM E-score” value is 0.0627.

Consider AGGTTAGC, for which the “PBM E-score” value was -0.296.

On to GCACCTAC, for which the “PBM E-score” value was -0.259.

As for TAGACCAA, the “PBM E-score” value was -0.179.

GGATCCCA: the “PBM E-score” value was -0.238.

In the case of CAGTCAAG, the “PBM E-score” value amounted to 0.267.

As to AGGAGTAC, the “PBM E-score” value was determined as 0.182.

With AATTTTAT, the “PBM E-score” value was found to be 0.076.

As to CACCATTC, the “PBM E-score” value was -0.0769.

For ACCAATGA, the “PBM E-score” value was 0.137.
